# Test results from the RNAGym collection of RNA variant scans (doi:10.7554/elife.90254).
# Read counts are not given, so values of variants with three or more changes are uncertain.
# B1: LINE1-full (parent)
# chain: UACGUAGGUGGUUUUCCCCUGAUAGUGCUAAGGGGGCCUGGAAGUUUGGACUGGGCAGAGCUCAACACAGCGUGGCAAAGUGGCUGUGGCUAGACUGCCUCUCUGGAUUCCUCGUCACUCAGCAGGGCAUCUCUGAGAGAAAUGCC
# Variants of: B1
# Experiment: self-cleavage, relative activity (ratio to wild type); higher = more cleavage; in vitro, sequencing; the parent is a self-cleaving ribozyme
row,Variant,self-cleavage
1,U39C A50G U100C C123U,0.96
2,C38U U52C U62C U100C,0.14
3,U39C A64G A69U A78G U134C,0
4,C38U A107G U115A A142G,1.07
5,U39C C66U U108C,0.05
6,U39A U73A U119C G127A,1.26
7,U39C A43G U81A U85A A136U,0.09
8,U39A C110U U143A,1.14
9,U39A A77U U91C,0.13
10,G36U U73A A79G G88A U91C A142G,0.02
11,U39A U47A U91C A141G,0.15
12,C37A A43G U52A U62C U115C A129G,0
13,G40U A42G U102C,1.35
14,G40A A94G U102C,0
15,U39A A50G A78G U85C,0.28
16,G36C U45C U108C A140G,2.15
17,U39A A121U A136G U143C,1.7
18,U39C U46A U73A,1.07
19,G41A U81A A141G,1.72
20,G36C U46A U52C U91C A136G,1.31
21,C37U A67U A124G,0.03
22,U39A A136G A141U,1.79
23,U39A U81C U108G A138U,0.22
24,G36A A43U U115A,1

row,Variant,self-cleavage
1,G36A U45C U109C,1.34
2,G40U U73C A79U A138G,2.32
3,C37U U112C U115C A138G,2.07
4,C38U U102A A117U U134C,1.65
5,U39C A69G U87A U100C,0
6,C37G A59C A78U,1.72
7,U39A G54A A64G,0.27
8,U39C U47C A129U,1.67
9,C37U U47C U112C U130C,1.73
10,G36A A59G U73C U132C,0
11,C38U U96C A138G,0.08
12,G40A U62C A107U,0.02
13,G41A A65G G74A,0.02
14,U39C U115A A124G U134A,0.26
15,G41U A50G U85A U143C,0.03
16,U39C C56U A65G U85A A124G U132C,0
17,U39A A42G A69G U100A,0.34
18,U39A A43G U112C C118U A138G A140U,0.15
19,U39A U96A A141G,0.03
20,U39A A67G A117G A138G,0.66
21,U39G A64G U143C,0.49
22,U39A A78U A129U A141G,2.15
23,G40A U109A C123U U132C,1.23
24,U39C U47C A79G U143C,1.35

row,Variant,self-cleavage
1,G40A U62C U109C,0.09
2,U39C G49U A140G U143C,0.6
3,C38U G60A U115A,0.01
4,G35U G80C A94U A142G,0.21
5,G35U U102A G106U U119C,2.36
6,U39C G53C A142G,1.53
7,U39C U47A A59G,0.1
8,C37U A43G A79G U85A,0.1
9,G36C U47A A136U A138G,2.38
10,U39C U45A U46C U109A U112C,0.51
11,U39A G48A A69U U81A U108C,0.05
12,G40A U62C A107G A140U,0.02
13,U39A U47A U62C U112A A121G,0.14
14,C38A A67U U73C A138C,0.15
15,U39A A50G U130C,0.68
16,U39C U46A U62C U143C,0
17,G40A U96C A121U,0.05
18,G41U U85A U108C,0.08
19,U39G C118A A124G,1.09
20,G36A U39C U91C,0.9
21,G35U U104A A142G,1.02
22,G36A A42G U62C,0.05
23,U39A A64G C123A,0.32
24,G41A G74U U108C A141G,1.88

row,Variant,self-cleavage
1,C38A G41U A77U A121U,1.28
2,U39A U45C A78G A141G,1.29
3,U39C U104A U143G,0.4
4,U39A U115C A117U,1.59
5,G40A A50G G82A,1.01
6,C37U U132C G139A C145U,1.16
7,G35U G41C G48A U81C A121C A124G,0.22
8,U39G G105U U132A,1.18
9,G36A A43G U87A U91C A121U,0.05
10,G36A A59G A117G,0.06
11,G35C U73A C116U A136G,1.5
12,C38A A69G A124C,0.59
13,U39C U81G U87A U91G,0.09
14,C37G G82A A94U,0.22
15,G35C G125U A142G,1.48
16,G41A A69G U91A A142G,0.1
17,G41A U62C A64G,0.13
18,C37A U52A A69U,0.17
19,C38A U62A A92U,0.03
20,U39C A78G U100C,1.7
21,U39A A92G G127C,0.13
22,U39A U73A U119C,1.84
23,C37U U115C A129G U143G,1.22
24,C38U U109C U115C A129G,1.46

row,Variant,self-cleavage
1,U39A U52A A124U,1.43
2,U39C U46C A136C,1.72
3,C38U U96A A140G,0.07
4,G36A U115C A121G C145A,1.6
5,G41A A79G A92G U96A,0.12
6,U39A A94U U102C A136G,0
7,C37A A78G A92G U100A A124U A136G U143A,0.03
8,U39C U62C A92G A140G G144A,0
9,U39C C118A C123U,0.48
10,U39C U100A U109C U134C,0.63
11,G40A A65G U81C,0.02
12,C37U A136U U143C,0.29
13,U39C A67G U115A A124U,1.04
14,U39C C68G U91C,0.19
15,G40A A64U A107G,0.22
16,U39C U81A C123U C128U,1.83
17,G36U A79G U132A,0.71
18,U39C U112A A138G,0.76
19,U39C U91A C113U U115C G127A A138G,0.44
20,U39A A43G G58A C120A A136U,0.03
21,G36C U134A A142G,1.09
22,G35A U100A A140G,0.49
23,U39C U81A A136U,0.52
24,C37A A78G A79G,0.4

row,Variant,self-cleavage
1,U39C A50G U85A,0.04
2,U39C A43G U115A A142G,2.3
3,U39C A64C U108C,0.29
4,U39A U47A A78U U112C C145G,1.63
5,G36C U52A U62C U108C,0.03
6,G36A U62C C113U,0.02
7,G41A A79G U104C,1.08
8,U39C G58U U134A,0.03
9,U39A C111U A129G,1.58
10,C38U A50G U115A A121G A124U,0.73
11,U39C A77G U108C U143A,2.04
12,G41A C120A U143C,1.17
13,G35U G40A U134C,1.37
14,U39C A69G A79G G105A A138G A141U,0.73
15,U39C A121G A140G,1.67
16,G40A U102C G137U A138G,1.37
17,G36A G74A U143A,0.97
18,G40U U47G A64U,0.6
19,U39A C71U A78G U143C,0.5
20,G41A U87C U104C,0.25
21,U39C U47C U134C,1.58
22,U39C A57U U73A,0.05
23,U39C G88A A117C,0.07
24,G35U G41U A69G,0.11

row,Variant,self-cleavage
1,U39C A138G G144A,1.63
2,U39A U47C U85A A94U,0.15
3,C37A U46A U109A,1.13
4,U39A U100C A129C,0.98
5,G40A A59G G83A U100C U108C,0.05
6,A42C A59U U132C,0.54
7,U39C A42G A141G,0.57
8,G41A A79G U109C A142U,0.9
9,U39C U52A G54A,0.47
10,U39C A42G U45C G88A,0.24
11,U39A A79G U104C,1.02
12,C38U G106A G125U,1.81
13,U39C U62C A138U,0.06
14,G40A A57G A79G U108A,0.62
15,U39C G41A U132C A138G,1.5
16,U39A U46C U81C,1.25
17,U39C A94G A117G,0.46
18,C37G U62C U143C,0.07
19,C38A U73C A136G,0.41
20,U39A A78G A107G,0.66
21,U39G C63U U108C,0.2
22,U39C U46G A50C U52A U73A G83A C113U,0.58
23,U39A U52C A79G,0.97
